Assay results taken from PubChem BioAssay AID686979 (National Center for Advancing Translational Sciences (NCATS), 2013).
“And” between values parts separate entries of the source, which are not always exact repeats. Equal entries are not always repeated. Out of some 420,000 compounds screened, about 50,000 (12%) were called active. Inconclusive means that the source gave no clear call. Such entries were picked first, then a sample of the others. The call rests on the fitted dose curve; in most records, active means well fitted inhibition curve with a large enough effect; inconclusive means small, poorly fitted or top-dose-only effect; inactive means flat fitted curve, though single readings scatter. A potency beside an inconclusive call is a rough fit, not a confirmed value.

Assay: qHTS for Inhibitors of human tyrosyl-DNA phosphodiesterase 1 (TDP1): qHTS in cells in presence of CPT; further: nearly all actives have a fitted effect of over 55% in size
Conditions: chicken DT40 Tdp1-/-;hTDP1 cells + 20 nM CPT, ATP luminescence, 48 h; activity change, negative = growth inhibition: at 46.2 µM (top of the series) unless noted
Summary of the method: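 Cell growth measured by CellTiter-Glo luminescence after a minimum 48 h, 37 C compound exposure with 20 nM CPT in Tdp1-knockout DT40 cells stably expressing hTDP1, seeded 400/well; qHTS titration format.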
On the % scale 0 is the no-effect control and ±100 the full control effect; potency means the concentration at half of the fitted maximal effect; tags describe the fitted curve by direction and shape.

SMILES	Potency	activity change, negative = growth inhibition
COc1ccccc1C1c2ccc3ccccc3c2Oc2ncn(CCN(C)C)c(=N)c21 (stereo unspecified)	inconclusive: 23.1 µM [inhibitor, single point]	
CCCn1c(C)cc(C(=O)CN2C(=O)NC3(CCCCCC3)C2=O)c1C	active: 10.3 µM	
NC(=S)N/N=C/c1ccccc1OC(=O)c1cc2ccccc2oc1=O	inconclusive: 0.651 µM [inhibitor, full curve, poor fit]	
Cc1ccc(NC(=O)c2ccc(Cl)c(NC(=O)c3cccs3)c2)cc1	inconclusive: 20.6 µM [inhibitor, single point]	
Cc1c(N=C/C=C2/N(C)c3ccccc3C2(C)C)c(=O)n(-c2ccccc2)n1C		inconclusive: -33.4% [inhibitor]
CCOC(=O)c1c(C)[nH]c(N=Nc2ccccc2)c1C	inconclusive: 18.4 µM [inhibitor, single point]	
Cc1nn(Cc2ccccc2Cl)c(C)c1NC(=O)CCCn1nc(C)c([N+](=O)[O-])c1C	inconclusive: 29.1 µM [inhibitor, single point]	
COc1cccc(-n2ccnc2SCC(=O)Nc2cccc(C)c2C)c1	active: 20.6 µM	
COc1ccc(NC(=O)CCc2nnc3ccc(N4CCC5(CC4)OCCO5)nn23)cc1		inactive: -9.42%
COc1ccc(C2c3[nH]c4ccccc4c3C[C@H]3C(=O)N(CC(C)C)CC(=O)N23)c(OC)c1 (stereo partly specified)	inconclusive: 29.1 µM [inhibitor, single point]	
CCC(=O)NC(c1ccccc1)c1c(O)ccc2ccccc12 (stereo unspecified)		inactive: -17.1%
CC1CC(C)CN(S(=O)(=O)c2ccc(Oc3ccc([N+](=O)[O-])cc3)cc2)C1 (stereo unspecified)	inconclusive: 29.1 µM [inhibitor, single point]	
O=C(C1COc2ccccc2O1)N1CCN(c2ccc([N+](=O)[O-])cc2)CC1 (stereo unspecified)	inconclusive: 20.6 µM [inhibitor, single point]	
COc1ccc(Nc2cc(=O)oc3ccccc23)cc1	active: 2.91 µM	
CCOc1cccc(/C=C(\C#N)C(=O)NC2CC2)c1	inconclusive: 29.1 µM [inhibitor, single point]	
CCCC(=O)NCC(c1ccc2c(c1)OCO2)N1CCN(c2ccc(F)cc2)CC1 (stereo unspecified)	inconclusive: 20.6 µM [inhibitor, single point]	
Cc1nn(-c2ccccc2)c(Cl)c1C(=O)Nc1nnc(C2CCCCC2)s1		inactive: -24.1%
Cc1ccc(N2CC(C(=O)Nc3ccccc3OC(F)F)CC2=O)cc1 (stereo unspecified)	inconclusive: 25.9 µM [inhibitor, single point]	
O=S(=O)(c1ccccc1)N1CCC2(CCCN(c3ncccn3)C2)CC1		inactive: -3.5%
COc1ccc(NC(=O)N2CC3(CCN(C(=O)c4csnn4)CC3)C2)cc1		inactive: 4.34%
CCc1cc(CNC(=O)c2cc(COc3ccc(C)nc3)on2)on1	inconclusive: 29.1 µM [inhibitor, single point]	
Cc1cc(NC(=O)c2noc3c2CCCC3)no1		inactive: -6.25%
CSc1ccc(C2CC(=O)Nc3c2c(=O)n(C)c(=O)n3C)cc1 (stereo unspecified)	inconclusive: 20.6 µM [inhibitor, single point]	
CCOC(=O)/C=C1\CC(C(=O)OCC)Oc2c(OC)cccc21 (stereo unspecified)	inactive and inconclusive: 18.4 µM [inhibitor, single point]	

SMILES	Potency	activity change, negative = growth inhibition
Cc1sc2nc(CN(CCc3ccccc3)C(=O)c3ccco3)[nH]c(=O)c2c1C		inconclusive: -31.2% [inhibitor]
Cc1ncc(/C=C2\C(=O)Nc3ccccc32)[nH]1	inconclusive: 29.1 µM [inhibitor, single point]	
O=C(Nc1ccc(Br)cn1)c1cccc(S(=O)(=O)N2CCCC2)c1		inactive: 1.5%
Cc1c(N=NC2=C(O)CC(C)(C)CC2=O)c(=O)n(-c2ccccc2)n1C	inconclusive: 18.4 µM [inhibitor, single point]	
Oc1cc(O)cc(O)c1		inactive: 3.5%
COc1ccc(-c2[nH]ncc2CN2CCC(N3CCSCC3)CC2)c(F)c1	inconclusive: 23.1 µM [inhibitor, single point]	
COc1ccc(-c2nc3c(C#N)c[nH]n3c2NC2CCCCC2)c(OC)c1	inconclusive: 18.4 µM [inhibitor, single point]	
CC(C)(C)c1ccc(OCC(=O)NCC(c2cccs2)N2CCOCC2)cc1 (stereo unspecified)	inconclusive: 29.1 µM [inhibitor, single point]	
COc1ccccc1NC(=O)Nc1ccc(N2CCOCC2)cc1	inconclusive: 23.1 µM [inhibitor, single point]	
CCCc1nnc(NC(=O)CCC(=O)N2CCN(CCn3c(C)ccc3C)CC2)s1	inconclusive: 29.1 µM [inhibitor, single point]	
O=C(COC(=O)c1cccc(NS(=O)(=O)/C=C/c2ccccc2)c1)Nc1ccccc1OC(F)F		inconclusive: -32.1% [inhibitor]
CN(Cc1ccccc1)c1ccc(C(=O)O)cc1[N+](=O)[O-]		inactive: -0.655%
COc1cc(NC(=O)c2ccc(S(=O)(=O)N(C)c3ccccc3OC)cc2)cc(OC)c1	active: 18.4 µM	
O=c1c2cnn(-c3ccc(F)cc3)c2ncn1Cc1ccccc1		inactive: -25.5%
COc1ccccc1-c1nnc(SCC(=O)Nc2c(Cl)cccc2Cl)o1	active: 18.4 µM	
Cc1nn2c(NCc3ccccn3)c3c(nc2c1-c1ccccc1)CCC3	active: 2.59 µM	
CC(C)(C)OC(=O)N1CCN(C(=O)c2cccnc2Cl)CC1		inactive: -10%
Cc1ccc(OCc2nc3ccccc3n2CC(C)C)cc1	inconclusive: 29.1 µM [inhibitor, single point]	
Cc1cccc(NC(=O)c2ccc(S(=O)(=O)N3CCCCC3C)cc2)n1 (stereo unspecified)	inconclusive: 20.6 µM [inhibitor, single point]	
COc1ccc2[nH]c(=O)c(CN(C(=O)c3cccnc3)c3ccc(C)cc3)cc2c1	inconclusive: 20.6 µM [inhibitor, single point]	
COc1ccc(C(=O)C2CCCN(C(=O)c3csc(C(C)=O)c3)C2)c(C)c1 (stereo unspecified)	inconclusive: 14.6 µM [inhibitor, partial curve]	
O=C(O)C1CC=CCC1C(=O)Nc1ccccc1C(=O)N1CCN(c2ccccc2)CC1 (stereo unspecified)		inconclusive: -31.4% [inhibitor]
CCc1nc2c(OCc3ccccc3)cccn2c1N(Cc1ccccc1)C(C)=O	active: 18.4 µM	
CCN(CC)CCCC(C)n1c2nc(=O)[nH]c(=O)c-2nc2cc(Cl)ccc21 (stereo unspecified)	active: 8.2 µM	

SMILES	Potency	activity change, negative = growth inhibition
CCc1nc2ccc(C(=O)NCCC(C)C)cn2c1N(CC)CCOC	inconclusive: 29.1 µM [inhibitor, single point]	
Cc1cc(C(=O)CSc2nc(N)cc(N)n2)c(C)n1CCc1ccc(F)cc1	inconclusive: 29.1 µM [inhibitor, single point]	
CC(C)(C)c1ccc(N2C(=O)Cc3c2nc(N)c(C#N)c3N)cc1	inconclusive: 23.1 µM [inhibitor, partial curve]	
CCCN(C(=O)CCl)C1=CCCCC1	active: 18.4 µM	
Cc1ccc(-c2nnc(SCC(N)=O)n2C)cc1		inactive: 3.07%
Cc1cc2c(cc1S(=O)(=O)NCc1ccc(N(C)C)cc1)OCC(=O)N2	inactive	
COc1ccc(C(O)(CCC(C)C)C(CN2CCOCC2)c2ccc(Cl)cc2)cc1 (stereo unspecified)	inconclusive: 29.1 µM [inhibitor, single point]	
Cc1ccccc1-n1nnnc1SCC(=O)c1c(N)n(C)c(=O)n(C)c1=O	inconclusive: 9.2 µM [inhibitor, partial curve]	
OC(CNCCc1ccc(C(F)(F)F)cc1)COC(c1ccccc1)c1ccccc1 (stereo unspecified)	active: 18.4 µM	
COc1ccc(CC(=S)N2CCOCC2)cc1OC		inactive: -13.1%
Cc1c(CCO)c(=O)[nH]n1C(=O)c1c(F)cccc1F	inconclusive: 18.4 µM [inhibitor, single point]	
CCN(CC)S(=O)(=O)c1ccc(SCC(=O)c2c(N)n(C3CC3)c(=O)[nH]c2=O)nc1	inconclusive: 25.9 µM [inhibitor, single point]	
Cc1csc(SCC(=O)Nc2ncc(Cl)c(C)c2Cl)n1		inactive: -20.9%
CNc1nc(N)c(C(=O)Nc2cc(C)on2)s1	inconclusive: 29.1 µM [inhibitor, partial curve, poor fit]	
CC(Oc1ccccc1)C(=O)Nc1nc2ccc(S(N)(=O)=O)cc2s1 (stereo unspecified)	inconclusive: 29.1 µM [inhibitor, single point]	
CN(C)S(=O)(=O)c1cccc(NC(=O)CN2C(=O)NC(Cc3c[nH]c4ccccc34)C2=O)c1 (stereo unspecified)	inconclusive: 23.1 µM [inhibitor, single point]	
CC1Cc2nc(SCC(=O)N3CCN(c4ccccc4)CC3)n(C)c(=O)c2S1 (stereo unspecified)	inconclusive: 20.6 µM [inhibitor, single point]	
Cc1ccc(CN2CCC(CNc3ncnc4onc(-c5ccc(Cl)cc5)c34)CC2)cc1	active: 18.4 µM	
CC1(c2ccc(Cl)cc2)CC(C)(C)N(C(=O)c2ccccc2)c2ccccc21 (stereo unspecified)	inconclusive: 16.4 µM [inhibitor, single point]	
CC(C)C(=O)N1CCCC1(C)C(=O)Nc1cccc(Oc2ccccc2)c1 (stereo unspecified)		inconclusive: -34.2% [inhibitor]
CCCN(C(=O)c1cc2c(s1)-c1ccccc1SC2)c1ccccc1F	inconclusive: 16.4 µM [inhibitor, single point]	
COc1ccc(S(=O)(=O)N(CC(=O)NCc2ccccn2)c2ccc(Cl)cc2)cc1	inconclusive: 23.1 µM [inhibitor, single point]	
CC1(C(=O)NCc2ccc(Cl)cc2)CCN1C(=O)c1cccc(F)c1 (stereo unspecified)	inconclusive: 29.1 µM [inhibitor, single point]	
